Measurements reported in the supplement of paper PMC3334620.
Over roughly 33,000 sequences, “E-score (-0.5 to 0.5)” has its median near -0.035; the highest 2% begin near 0.35. Some of the results follow.

target: T1, Pdr3 (UniProt P33200); assay: PBM E-score (8-mer binding enrichment) (E-score (-0.5 to 0.5)); higher = stronger / more preferred TF binding; most listed sequences are background and not binding sites; conditions: protein concentration: 200 nM; construct: GST-full length
T1 sequence: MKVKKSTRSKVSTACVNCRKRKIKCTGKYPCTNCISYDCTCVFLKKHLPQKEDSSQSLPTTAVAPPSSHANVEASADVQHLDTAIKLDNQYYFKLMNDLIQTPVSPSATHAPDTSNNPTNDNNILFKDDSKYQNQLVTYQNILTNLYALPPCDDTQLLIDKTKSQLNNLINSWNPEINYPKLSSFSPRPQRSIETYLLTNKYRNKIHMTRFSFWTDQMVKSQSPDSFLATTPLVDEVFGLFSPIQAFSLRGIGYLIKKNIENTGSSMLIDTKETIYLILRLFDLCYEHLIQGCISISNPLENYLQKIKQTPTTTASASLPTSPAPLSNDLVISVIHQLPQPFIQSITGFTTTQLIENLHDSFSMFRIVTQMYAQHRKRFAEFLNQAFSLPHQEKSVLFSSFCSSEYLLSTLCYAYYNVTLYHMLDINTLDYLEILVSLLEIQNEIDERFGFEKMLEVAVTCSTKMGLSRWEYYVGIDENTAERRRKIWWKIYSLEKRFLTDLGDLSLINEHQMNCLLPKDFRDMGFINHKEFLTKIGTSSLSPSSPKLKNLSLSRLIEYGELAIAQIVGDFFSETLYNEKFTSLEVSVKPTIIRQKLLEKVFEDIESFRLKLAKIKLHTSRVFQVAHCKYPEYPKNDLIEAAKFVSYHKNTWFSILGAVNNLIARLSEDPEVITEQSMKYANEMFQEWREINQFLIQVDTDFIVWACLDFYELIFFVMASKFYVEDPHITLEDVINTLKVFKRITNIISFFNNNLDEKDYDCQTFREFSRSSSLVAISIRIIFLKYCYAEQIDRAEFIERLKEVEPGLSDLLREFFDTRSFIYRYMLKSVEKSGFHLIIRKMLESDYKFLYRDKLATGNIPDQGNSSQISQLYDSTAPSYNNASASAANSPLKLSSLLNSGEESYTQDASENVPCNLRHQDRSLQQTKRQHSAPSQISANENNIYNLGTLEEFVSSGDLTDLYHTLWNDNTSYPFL
Method in brief: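 GST-tagged yeast TFs (full-length or DNA-binding domain) were made by PURExpress in vitro transcription/translation and applied at about 100-200 nM to universal all-10-mer Agilent arrays. The arrays were made double-stranded by primer extension, on fresh or once-stripped slides. Bound protein was detected with fluorescent anti-GST, and scans were normalised with masliner. Each ungapped eight-base word, pooled with its reverse complement, received an E-score (modified Wilcoxon-Mann-Whitney statistic) from the Universal PBM Analysis Suite.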

Row | Sequence | PBM E-score
1 | GTTGAAGA | -0.131
2 | TTACCTAA | 0.0168
3 | GAATATTA | 0.199
4 | GGGCGTAC | -0.00965
5 | AGACGACA | -0.0655
6 | ACCATAAG | -0.258
7 | ATATCTGA | 0.0555
8 | GAGATTGA | -0.115
9 | CATTCCCA | -0.089
10 | ATGCCGCA | 0.199
11 | ACCTGGAA | 0.0004
12 | AACGCCAC | -0.147
13 | CATGATTA | 0.0563
14 | CAAAGACG | -0.178
15 | AAAGCAGC | 0.0132
16 | CTCATCGA | -0.00992
17 | ACTACCCG | 0.236
18 | GCCGCCGC | 0.167
19 | ATGCCGAC | 0.159
20 | ATGGGGAC | 0.0641
21 | ACCTCTCA | 0.0765
22 | CTACTAAC | 0.0754
23 | ACACAGAT | -0.112
24 | CCCAGCGA | -0.0714
25 | GGCCAACA | 0.0662

Row | Sequence | PBM E-score
26 | AGACGGTG | -0.235
27 | CAGCAATG | -0.357
28 | CAAGACAG | -0.0605
29 | ACGAGTTC | -0.119
30 | CTACCTTC | -0.0284
31 | CACCGATC | 0.123
32 | CAATGCCC | 0.136
33 | AGGTGAAA | -0.106
34 | ACTCACAA | -0.112
35 | AATTCATG | 0.148
36 | CCACAAGG | -0.0411
37 | GCGGATCC | 0.409
38 | CCACTAGC | -0.207
39 | CCATAGAG | -0.107
40 | GCCGTTCA | 0.132
41 | GAGACCTA | -0.00406
42 | ACCACAAT | -0.0705
43 | GAACGCGC | 0.19
44 | GCGACGAC | -0.144
45 | AGAGTGGA | -0.116
46 | GAAGTTGA | 0.0408
47 | AAGGGTAT | -0.098
48 | CGACCGAA | 0.0221
49 | CAGAGAAG | -0.0843
50 | GGAATAGA | 0.219

Row | Sequence | PBM E-score
51 | GCCCGTAA | 0.0221
52 | AGATCTAA | -0.253
53 | AGAGTGCG | -0.0211
54 | AGAGGAAC | -0.066
55 | CTCCTCCA | -0.07
56 | ATGAATAG | 0.0874
57 | AGCGTTAG | -0.146
58 | CCCTTAGG | -0.244
59 | GTGAAAAA | 0.0595
60 | CAATCGAC | -0.203
61 | ACGAGAGT | -0.124
62 | GTTATTTA | 0.0344
63 | AGCTTAGC | -0.115
64 | AAAGCTGA | -0.166
65 | AGGTTTCC | 0.0123
66 | AGGCTGAC | -0.122
67 | CCATAATC | -0.0573
68 | ATGCCGTG | 0.125
69 | AAGCTAGC | -0.0912
70 | ATGAACAG | -0.105
71 | CAGGCGTC | -0.0862
72 | ACTGACAG | 0.0081
73 | CCCACCTC | -0.195
74 | GAGACAGC | -0.00565
75 | AGCTTACG | -0.297

Row | Sequence | PBM E-score
76 | CGAAGTCC | 0.0414
77 | ATATACGC | -0.0896
78 | TGCCCGCA | 0.246
79 | GCCGCTGA | 0.23
80 | AATGCTGA | -0.186
81 | GACCCTCA | -0.138
82 | GTATAAGA | -0.188
83 | CGCCTAAG | -0.251
84 | ATCGTGCG | 0.164
85 | CGAACTGA | 0.0143
86 | CGCCACTA | -0.137
87 | CGGAGACG | 0.335
88 | TCCACAGA | -0.0602
89 | GAACTCCA | 0.0704
90 | GCAGATAA | -0.0148
91 | AATTATGA | 0.045
92 | CCAAGTCG | -0.00288
93 | AGATCGCT | 0.0793
94 | ATTCAAAT | 0.021
95 | CTCGCTAA | -0.0585
96 | AGGCAAAT | 0.0679
97 | AAAAACAG | -0.139
98 | TCGACCCA | -0.122
99 | ATGCATGC | -0.138
100 | AGCAATAA | -0.15

Row | Sequence | PBM E-score
101 | GACTTGCA | -0.055
102 | AGACACCA | -0.0252
103 | ACCCCGCA | 0.156
104 | CCTGTTGA | -0.144
105 | AGAGTACA | -0.207
106 | AGTTGTAT | -0.0418
107 | ATTACGGG | -0.0819
108 | GAGCGTTA | -0.14
109 | ATTGGCAC | -0.108
110 | GATACGGA | 0.357
111 | CTACGGAC | 0.0596
112 | TAAGATCA | -0.267
113 | GCAAGCCA | -0.215
114 | GAATATGC | -0.0675
115 | AGAACTAT | -0.0311
116 | ACCCGAGC | 0.245
117 | TGTATCAA | 0.0329
118 | ATTCTCTG | -0.184
119 | GAGCTATA | -0.303
120 | AGTTATCA | -0.275
121 | CGCCTCCG | 0.295
122 | ACAAACTG | -0.248
123 | AGGCGAGG | -0.0755
124 | CGGGAAGA | 0.391
125 | ATGTTATC | 0.0774

Row | Sequence | PBM E-score
126 | AGTGCTGG | -0.103
127 | GCCAGACA | 0.0107
128 | GGTGTCAC | 0.073
129 | CTACTGAC | -0.107
130 | ATACCGGG | 0.183
131 | CGCTATTA | 0.0145
132 | AGGTATCG | 0.117
133 | CTGGGGTC | -0.0264
134 | CAAAGGAA | 0.0289
135 | CATTTGGG | -0.0523
136 | AAGTCTAT | -0.272
137 | CTTAGGCA | -0.275
138 | ACCGTCAC | -0.113
139 | AAGAGGTA | 0.0631
140 | GACATCTC | 0.123
141 | CGTTGTAG | 0.193
142 | AACGCTTA | -0.192
143 | TATGCGAA | 0.013
144 | AGACTAAT | -0.0279
145 | ACCAGATA | 0.0315
146 | CCCCACTC | -0.0483
147 | AGCTGGCG | -0.0937
148 | ACCTGCTC | -0.0276
149 | CATGTAAC | -0.0635
150 | TAGAGTGA | -0.134

Row | Sequence | PBM E-score
151 | CGCACGTC | 0.0583
152 | GAGCCGTA | 0.223
153 | GCAATTCA | 0.125
154 | CACCAATA | -0.0503
155 | CGAAGCCA | -0.211
156 | AGGTACAA | -0.2
157 | ATTCCGAC | 0.413
158 | AACCACAA | 0.126
159 | GCGCCTTA | -0.00836
160 | GTAACTAC | -0.0267
161 | AAATCTCT | -0.0331
162 | CGGAGGCA | 0.103
163 | CGACAGAC | -0.0397
164 | ACGTTCCA | 0.0623
165 | ACGCAATC | 0.0295
166 | CCTGGACG | 0.0302
167 | AACTAGGT | 0.131
168 | AGCAATTA | 0.0128
169 | AACTGAGG | -0.0968
170 | GGTGAACA | -0.126
171 | AATGACTG | -0.188
172 | CCACCCTC | 0.0627
